± gives the standard deviation of the averaged measurements. The list shows a part of the results.

This is an account of results in the supplement of paper PMC11417369.

The test system of this test is PfAP2-EXP AP2 domain (GST-tagged). As to the kind of experiment: gcPBM binding intensity (ln(normalized median fluorescence intensity)); higher = stronger DNA binding. The procedure, abridged: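 Binding intensity values are the highest Masliner-normalised natural-log median intensity among replicate spots of either probe orientation. The binding step lasted 1 h in 1× PBS with 1% milk, 0.2 mg/ml BSA, 0.5% salmon testes DNA and 0.03% Triton X-100, using GST-tagged P. falciparum DNA-binding domains expressed in E. coli on an Agilent 4 × 180k array of primer-extended double-stranded 36-bp intergenic genomic probes plus negative controls. Alexa488 anti-GST antibody and a 488 nm scan detected bound protein.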
For “ATGCGTTAATCTATATATATTATGTATAGATTTTCA [CACACA_negctrl_site1650]”, the “gcPBM binding intensity (ln)” value was 8.38 ± 0.38.
For “AACATATTTATGATGTGTACCTACATAATAGAATTT [XGTACX_site141]”, the “gcPBM binding intensity (ln)” value was 8.38 ± 0.32.
Under “CATAATGTAAATAAGTGTACACATATATAATACATA [XGTACX_site3108]” stands 8.78 ± 0.33.
As to “TTTTTTAATATATTATTATAAATATTTTTTATGTGT [GTGCAC_negctrl_site712]”, the “gcPBM binding intensity (ln)” value came out at 8.21 ± 0.39.
The result for “ATATTTTGATAATATTGTACAAAAACATTAAAATGT [XGTACX_site8361]” reads 8.46 ± 0.45.
With “TCTTTTATGATATTTACACACAAACGTGAGATAGCT [CACACA_site2312]”, the “gcPBM binding intensity (ln)” value worked out at 8.3 ± 0.47.
Under “AACATTATGTTTATTTGTACATATAAATATATGTAA [XGTACX_site7389]” stands 8.29 ± 0.34; under “CTCTACGAATTCATAGTGCAAAGAGCTAATTTTTTC [GTGCAC_site9710]”, 8.41 ± 0.17.
The result for “GATCATTCAGTTTTATCACACACAATCAAACATATA [CACACA_site8882]” reads 8.73 ± 0.4; that for “ATATATATATATATATGTACATATTTGATTTTTCTT [XGTACX_site8171]”, 10.1 ± 0.29; that for “ATTTTGATGATGTATGCACACATTGAAAATGAGAAA [CACACA_site2916]”, 8.72 ± 0.33.
Take “ACAACATATGTTATCACACACATATAAATATAAATA [CACACA_site7038]”: the “gcPBM binding intensity (ln)” value came out at 8.41 ± 0.54.
The result for “TCACTACATTTTGGACGTACACAACTTGATATATTG [XGTACX_site4775]” reads 8.85 ± 0.4; that for “CACACGCACAGACACACACACACACGGATATAAATA [CACACA_site6301]”, 8.77 ± 0.41; that for “TTTTTTTTTTTTTTTTGTACATATAAAAATACGTAA [XGTACX_site6003]”, 8.11 ± 0.58.
Take ATGATATACTTGAGTGTGCACAAACTATTACTTACA: the “gcPBM binding intensity (ln)” value came out at 8.97 ± 0.13.
Take “AAATCTTAACTCTATGCACACATAAAAGTATATAAA [CACACA_site8709]”: the “gcPBM binding intensity (ln)” value came to 8.41 ± 0.15.
Under “TTTTGTAGATATTGAAGTACAAAAAAAATGTAAAAG [XGTACX_site5905]” stands 8.66 ± 0.092.
The result for “ATCGGTAATATTAACACACACATTTATATATATTTA [CACACA_site1084]” reads 8.74 ± 0.38; that for “TATATATCGCCCTTCACACACACACGGATATAAATA [CACACA_site7221]”, 8.98 ± 0.47.
Under “CGCTCTTATAAATGTTGTACATAAAACTGTTCATTA [XGTACX_site3409]” stands 8.58 ± 0.35; under “ATAATAAATATATAATGTACATATTATGTTCTTTAT [XGTACX_site8655]”, 8.51 ± 0.42; under “AAAAGAAAATAAGAAACACACAAAAATATATAAAAA [CACACA_site3697]”, 8.72 ± 0.45.
Consider “TTCTTTGCTTTTCAAACACACAAAAGTTATTATATT [CACACA_site521]”, for which the “gcPBM binding intensity (ln)” value came out at 8.62 ± 0.33.
Under “TTATAAATGTATTTATGTACATATAAATATATATAA [XGTACX_site2970]” stands 8.22 ± 0.26; under “ATAAAAGAATAAATAAAACACATATATATATATATA [XGTACX_negctrl_site31]”, 10.1 ± 0.14; under “ATATAAATCAAAAACGCACACATAAATATTTATATA [CACACA_site2442]”, 8.77 ± 0.54.
With “TTTTTTTTTTTTTTGGTGCACATAGAAATTCTAAAA [GTGCAC_site9809]”, the “gcPBM binding intensity (ln)” value was 8.88 ± 0.13.
The result for “CCTATTTATAAATACACACACATATATAAATAAATA [CACACA_site5629]” reads 8.54 ± 0.43.
The result for “AAAAAGAAATCCAATACACACCTTCAAAATGGGTAT [CACACA_site4978]” reads 8.38 ± 0.44; that for “TATTTATAGATATATACACACATATTTATATTTATA [CACACA_site6441]”, 8.24 ± 0.39; that for “AAAAAACTATTATGTGCATGCACAAGTCAGGTAAAT [TGCATGCA_site791]”, 10.1 ± 0.11.
The result for “CATTAAATATATAAATGTACAAATATATTTTTCAAA [XGTACX_site4429]” reads 8.12 ± 0.35; that for “TTAATGTAGAGAAAATGTACATTTTATTAAAACAAT [XGTACX_site6376]”, 8.7 ± 0.35.
For “TTGTTCATATTTTTTATTGTGTTAATATTTATAAAA [GTGCAC_negctrl_site423]”, the “gcPBM binding intensity (ln)” value came out at 8.79 ± 0.46.
For “ATCTATAAATTTCCACGTACATATATATATATATAT [XGTACX_site4502]”, the “gcPBM binding intensity (ln)” value turned out to be 10.1 ± 0.13.
Under “TTTTAAATATATGTGCTATTATATTAAGAGATGTAA [GTGCAC_negctrl_site560]” stands 8.38 ± 0.18; under “CCTCTTTTTATTCTCACACACGTTTATATATAAAGT [CACACA_site4992]”, 9.08 ± 0.31.
Under “GAAATTTCCCATATTACACACATACTATGATATATA [CACACA_site5987]” stands 8.7 ± 0.52; under “TTTTTTATTTTTGCGTGTACATAATAATGAATCTTC [XGTACX_site8077]”, 8.78 ± 0.46; under “ATATTGTTTTATATAGAACACACATAAAAATATATA [CACACA_site8314]”, 8.41 ± 0.4.
The result for “TTTTTTTTTTTAAAAAGTACACAATTAATTAATATA [XGTACX_site8494]” reads 8.33 ± 0.37.
On to “GGCATAAATATATGCACACACAAAAAAAAAAAAAAA [CACACA_site59]”, for which the “gcPBM binding intensity (ln)” value was 8.38 ± 0.38.
The result for “AAAATAAGAAATAGATGTACTTATAAATAAATACAA [XGTACX_site4441]” reads 8.15 ± 0.11; that for “ATATATATATATATATGTACTTATTTGAATACTAAA [XGTACX_site2330]”, 10.2 ± 0.53.
The result for “GAAAGAATAAAATTTACACACATATATATATACATA [CACACA_site2250]” reads 8.5 ± 0.4.
The result for “TATAAACATTATAAATGTACAAATATATATATATAT [XGTACX_site3218]” reads 9.86 ± 0.4.
Turning to “TTATTGAAAAAAGAACAAAAAAAAAAAGAAAAATTA [XGTACX_negctrl_site438]”, the “gcPBM binding intensity (ln)” value worked out at 8.28 ± 0.55.
Consider “TCATTATATCATGGTAGTACTCATTAATAATACGTA [XGTACX_site8701]”, for which the “gcPBM binding intensity (ln)” value came out at 8.45 ± 0.33.
For the sequence “TATATATTTTTTAAACCACACACAATATAGAGTATA [CACACA_site8106]”, the “gcPBM binding intensity (ln)” value is 8.67 ± 0.41.
Under “AATATTATTTAGGAGCGTACGTTTTATTTACATATT [XGTACX_site5188]” stands 8.74 ± 0.44.
The result for “GTTAATAAAAATATATGTACATAATTATTATGAAAA [XGTACX_site3030]” reads 8.48 ± 0.32; that for “ATAATGATATATAGTACACACAAAAATGGAAGTAAA [CACACA_site7541]”, 8.98 ± 0.43.
For “GGACATTTTTATAAGGTGCACGGTTTTGATATTACT [GTGCAC_site9892]”, the “gcPBM binding intensity (ln)” value came to 8.975 ± 0.035.
Under “AACCACATACATATAACACACATATACAATATATAT [CACACA_site8607]” stands 8.55 ± 0.45; under “AAGGGTTGCCTGTGTAGTACATATATATATATATAT [XGTACX_site8555]”, 10.2 ± 0.21; under “TGACTATGTATATTTAGTACATAAAATCAATAATAT [XGTACX_site4082]”, 8.45 ± 0.32.
Under “GTAAACAAAATATTTTGTACATATTTTATATTATTT [XGTACX_site7837]” stands 8.43 ± 0.19; under AGGGAAAAAAAAAAAGTGCATTTGTATTAAATGAAT, 8.71 ± 0.15.
Under “AAATATAAGAAAAAGGTGCTTTTTTTTTTTTTTTTT [GTGCAC_site9700]” stands 8.825 ± 0.007.
Consider “AAATTATATTATTGAACACACGTTTGGTAATGTTTT [CACACA_site5469]”, for which the “gcPBM binding intensity (ln)” value was 8.24 ± 0.43.
Consider “TCATTCATAAAAATAACACACAAAAAAAAAAAAAAA [CACACA_site1800]”, for which the “gcPBM binding intensity (ln)” value came to 8.15 ± 0.53.
Under “AAAAGATGCGCATACACACAGATGAATAACAAAAAA [CACACA_site6865]” stands 8.88 ± 0.57.
As for “GCACATTTTTTTATCACACATATAATTACAATATAA [CACACA_site5585]”, the “gcPBM binding intensity (ln)” value came out at 8.78 ± 0.32.
The result for “TTTCGGTTTTTTTTTATTTTTTTTTTTTTATTATTT [CACACA_negctrl_site335]” reads 8.41 ± 0.62.
For “TACGTATGCCTGTGATGTACATATATATATACATAC [XGTACX_site4728]”, the “gcPBM binding intensity (ln)” value amounted to 9.05 ± 0.43.
Regarding “ATATAGGTAAAAAGTATACACACGTTGACACATTCT [CACACA_site1199]”, the “gcPBM binding intensity (ln)” value stood at 8.71 ± 0.53.
“ATAATATAATTTTGCAGTACCCAAAAAACAAAATAA [XGTACX_site4827]”: the “gcPBM binding intensity (ln)” value amounted to 9.04 ± 0.72.
As for “AATATGATATATATATGTACATATATATAATATAAT [XGTACX_site3072]”, the “gcPBM binding intensity (ln)” value worked out at 8.52 ± 0.41.
As to “AAAGTATAATAATACACACACTTTAAAAGTTAAATG [CACACA_site7550]”, the “gcPBM binding intensity (ln)” value is 8.62 ± 0.33.
The result for “ACATAAAATTATTATACATGCATATTTAATTTTTTC [TGCATGCA_site353]” reads 8.64 ± 0.22.
The result for “AAAAAAAAAAAACACACACACACACCCATATATAAA [CACACA_site1170]” reads 8.51 ± 0.59.
For “GAATTGTATTGGTACTGTACAATTAAATTAAAAAAA [XGTACX_site1891]”, the “gcPBM binding intensity (ln)” value worked out at 8.48 ± 0.36.
Under “TGTAGTCTGGAGAAGAGTACATAGTATCTGGTAGCT [XGTACX_site2029]” stands 8.65 ± 0.47; under TTTTTTGTTAAGTTGGTGCAAACAATAGTTATTGAC, 8.67 ± 0.11.
Under “TATATCTACTACACACGTACACAAAATAAGATACCT [XGTACX_site7886]” stands 8.79 ± 0.52; under “GGAGCACCCAGACACACACACACATATATATATATA [CACACA_site336]”, 10.2 ± 0.26.
The result for “TATTATATTTTTATTTGTACGTAAAATTAAGTTATG [XGTACX_site2405]” reads 8.6 ± 0.3.
On to “AAAAATATAAACAAACGTACGAAGTGATGATATATT [XGTACX_site2242]”, for which the “gcPBM binding intensity (ln)” value was found to be 8.89 ± 0.59.
The result for “GTTAAAAGAAAAATATGTACATAAAAAAATTAGAAA [XGTACX_site578]” reads 8.88 ± 0.28; that for “TATATATATATATGATGTACACATTTTATTATTTGT [XGTACX_site1147]”, 9.94 ± 0.31; that for “AAGATGGTAAAGAATTGTACGCGCATATATATATTT [XGTACX_site3904]”, 9.69 ± 0.42.
Under “TTTTCAATTAAAAAAAAATTATATTTTATTATTACA [CACACA_negctrl_site142]” stands 7.68 ± 0.23; under “CTCTTGTTTCCATATAGTACGTAATAATATATACAA [XGTACX_site2428]”, 8.88 ± 0.2.
The result for “AATTTGATAATATCATGTACATGAAAGAATTCATGA [XGTACX_site8463]” reads 8.36 ± 0.4; that for “AATAAAAAAATATGAAATTATGACATATAGCATTTG [TGCATGCA_negctrl_site160]”, 8.26 ± 0.21.
Consider “TACATAAATTAAAACACACACACACCCAAAAAAAAA [CACACA_site2261]”, for which the “gcPBM binding intensity (ln)” value stood at 8.71 ± 0.41.
Regarding “GTGTATATTATTTTATCACACATGTACATATGTTAA [CACACA_site5473]”, the “gcPBM binding intensity (ln)” value is 8.45 ± 0.54.
Under “AAAAAATAAAAAGATACACACATATGTATAATATAC [CACACA_site1496]” stands 8.66 ± 0.44.
